Test results published in PubChem BioAssay AID485313 (National Center for Advancing Translational Sciences (NCATS), 2010).
Several values for one entry are separate records, joined by “and”; a condition that tells them apart may be missing. Identical values can stand only once. The whole screen tested about 320,000 compounds, of which about 7,600 (2.4%) were called active. Inconclusive results, whose numbers are uncertain, are shown with a selection of clear calls. The call rests on the fitted dose curve; in most records, active means well fitted activation curve with a large enough effect; inconclusive means small, poorly fitted or top-dose-only effect; inactive means no such curve, though single readings can be large or run the other way. Potencies beside an inconclusive call are fits to weak or partial responses and may not hold up.

Assay: qHTS Assay for NPC1 Promoter Activators; further: nearly all actives have a fitted effect of over 60% in size;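 on activation: reporter is driven by a mutant NPC1 promoter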
Details: Huh7 NPC1 promoter luciferase reporter, 24 h; series mostly up to 9.22 µM
How it was run: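 Readout is luciferase luminescence, reflecting NPC1 promoter activation in stably transfected Huh7 cells after 24 h compound exposure at 37 °C in reduced-serum medium with 10% FBS.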
Potency means the concentration at half of the fitted maximal effect; tags describe the fitted curve by direction and shape.

SMILES | Potency
CCn1cnc2cc(NCc3cccs3)ccc21 | inconclusive: 2.82 µM [activator, single point]
CC(C)CNC(=O)COC(=O)c1ccc2c(c1)C(=O)N(Cc1ccco1)C2=O | inactive
CCc1ccc(NC(=O)CCc2c(C)nn(-c3ccc(N4CCCCC4)nn3)c2C)cc1 | inconclusive: 3.55 µM [activator, partial curve]
CCOC(=O)c1csc(N)c1-c1ccc([N+](=O)[O-])cc1 | inactive
Oc1ccc(C=Nc2ccccc2-c2nc3ccccc3[nH]2)cc1 | inconclusive: 5.62 µM [activator, single point]
Cc1cc([N+](=O)[O-])nn1CCCC(=O)NC(C)c1ccccc1 (stereo unspecified) | inconclusive: 1.26 µM [activator, single point]
O=C(c1ccccc1)c1ccc2cc(O)ccc2c1 | inconclusive: 3.16 µM [activator, single point]
CN(C)c1ccc(C2Nc3cccc4cccc(c34)N2)cc1 | inconclusive: 3.98 µM [activator, partial curve]
N#C/C(=C\c1ccc(OCc2ccccc2)cc1)C(N)=O | inconclusive: 3.98 µM [activator, partial curve]
O=C(NCCC1=CCCCC1)c1c(O)nc2ccccn2c1=O | inconclusive: 3.98 µM [activator, single point]
COc1ccc(NC(=S)Nc2cnc3ccccc3c2)c(OC)c1 | inactive
Cc1ccc(S(=O)(=O)N2CCOCC2)cc1NC(=O)CSc1nnc(NC2CC2)s1 | inactive
CC(=O)N(C)c1nc(-c2ccc(Cl)cc2)cs1 | inconclusive: 3.98 µM [activator, single point]
O=S(=O)(Nc1ccc(-c2nc3cccnc3s2)cc1)c1ccccc1F | inconclusive: 3.55 µM [activator, single point]
COc1ccc(/C=C\C(=O)Oc2cccc(/C=N/NC(=O)Cc3ccc(OC)c(OC)c3)c2)cc1 | inconclusive: 5.01 µM [activator, single point]
O=S1(=O)N=C(N2CCOCC2)c2ccccc21 | inactive
O=C(N/N=C/c1ccc2c(c1)OCO2)C1CC1 | inconclusive: 3.98 µM [activator, partial curve]
Cc1ccccc1Nc1nc(N)nc(-c2oc3ccccc3c2C)n1 | inconclusive: 2.24 µM [activator, partial curve]
COc1ccc2nc(-c3ccc(N)cc3)[nH]c2c1 | inconclusive: 0.562 µM [activator, full curve]
O=C(NCCc1c[nH]c2ccccc12)c1cc2ccccc2oc1=O | inconclusive: 3.55 µM [activator, partial curve]
Nc1cccc(-c2cnc3ccccc3n2)c1 | active: 2.51 µM
O=C(NCc1ccc(-c2nc3ccccc3s2)cc1)c1ccco1 | inconclusive: 3.16 µM [activator, partial curve]
COC(=O)c1ccc(C(=O)NC(=S)Nc2nc3c(s2)CCCC3)cc1 | active: 3.98 µM
O=[N+]([O-])c1cccc(-c2cnc3ccccc3n2)c1 | inconclusive: 2.51 µM [activator, partial curve]
CC1CCCN(C(=O)CN2C(=O)c3ccccc3S2(=O)=O)C1 (stereo unspecified) | inconclusive: 2 µM [activator, partial curve]
Cc1cc(C)n2nc(C(=O)Nc3ccc4c(c3)CCC4)nc2n1 | inconclusive: 2.82 µM [activator, partial curve]

SMILES | Potency
O=C(Nc1cccc2ccccc12)c1cn(-c2ccccc2)nc1-c1cccs1 | inactive
Cc1ccc(-c2cc(C(=O)O)c3cc(Br)ccc3n2)s1 | inconclusive: 3.98 µM [activator, partial curve] and inconclusive: 3.98 µM [activator, single point]
CC(C)c1cc(C(=O)N/N=C/c2ccoc2)cs1 | inconclusive: 3.16 µM [activator, single point]
CCC(C)/C(C)=N/NC(=O)c1ccc(CSc2nc3ccccc3s2)cc1 (stereo unspecified) | inactive
CCN(Cc1nc2ccccc2c(=O)[nH]1)C(=O)COc1ccccc1Cc1ccccc1 | inactive
Cc1ccc(NC(=O)C2C3/C=C\CCCCC32)cc1C (stereo unspecified) | inconclusive: 3.16 µM [activator, single point]
COc1ccc(/C=N/Nc2nnc(Cc3ccccc3)c(=O)[nH]2)cc1OC | inconclusive: 1.12 µM [activator, partial curve]
CCCOC(=O)c1ccc(NC(=O)c2cnccn2)cc1 | inconclusive: 3.55 µM [activator, partial curve]
CC(=O)Nc1nc2ccc(S(=O)(=O)N3CCCCC3)cc2s1 | inactive
S=C(Nc1ccccc1)Nc1nccs1 | active: 2.51 µM
CCc1ccc(C(=O)COC(=O)c2cc([N+](=O)[O-])ccc2NCCO)cc1 | inactive
COc1cc(NC(=O)c2cc(OC)c(OC)c(OC)c2)c(OC)cc1NC(=O)CN1CCCCC1 | inactive
CC(C)(C)NC(=O)N1CCN(c2nc3ccc(Cl)cc3s2)CC1 | inconclusive: 3.98 µM [activator, partial curve]
CCOc1ccccc1NC(=O)C1CCCN1S(=O)(=O)c1ccccc1C(F)(F)F (stereo unspecified) | inactive
O=C(NCCO)c1cccc2c1-c1ccccc1C2=O | inactive
COc1ccc(-c2cc3nc[nH]c(=O)c3s2)cc1 | inconclusive: 1.41 µM [activator, partial curve]
CCCS(=O)(=O)N1CCc2ccc(NC(=O)c3ccccc3Cl)cc2C1 | inactive
COC(=O)C(C)Oc1ccc2cc(-c3ccccc3)c(=O)oc2c1 (stereo unspecified) | inactive
O=C(/C=C/c1ccccc1)c1ccc(NC2=NCCCS2)cc1 | inconclusive: 3.55 µM [activator, partial curve]
COC(=O)c1ccc2[nH]c(C(C)(C)O)c(C)c2c1 | inconclusive: 3.16 µM [activator, single point]
COc1ccc(-c2cc(C(=O)Nc3ccc(C(N)=O)cc3)c3ccccc3n2)cc1 | inconclusive: 3.16 µM [activator, single point]
Cc1ccc(-c2noc(C3CCCCC3)n2)cc1 | active: 3.98 µM
O=C(Nc1ccc(F)cc1)c1cc2c(s1)CCCC2 | active: 2.24 µM
O=C(CCCc1cccs1)Nc1nc2c(s1)CCCC2 | inconclusive: 2.82 µM [activator, partial curve]
O=Cc1cc(N=Nc2cccc(C(=O)O)c2)ccc1O | inconclusive: 2 µM [activator, partial curve]
O=C(Cn1cc([N+](=O)[O-])ccc1=O)NCc1ccc(Cl)cc1Cl | inconclusive: 3.55 µM [activator, partial curve]

SMILES | Potency
COc1ccc(-c2cc3c(=O)n(CC(=O)N4CCN(C)CC4)ncn3n2)cc1 | inconclusive: 5.01 µM [activator, single point]
C#CC(C)(C)NC(=O)c1ccc(-c2ccccc2F)cc1 | inconclusive: 3.16 µM [activator, single point]
O=C(COC(=O)c1ccc(CN2CCCC2=O)cc1)Nc1ccc(F)cc1 | inactive
Oc1ccc(/C=N/Nc2nccnc2Cl)cc1 | active: 3.98 µM
COc1ccc(C(=O)C2CCCN(C(=O)c3noc4c3CCCC4)C2)c(C)c1 (stereo unspecified) | inactive
c1ccc2[nH]c(NCc3ccc4c(c3)OCO4)nc2c1 | inconclusive: 3.16 µM [activator, partial curve]
Cc1ccc2nc(-c3ccc(O)c(O)c3)cn2c1 | inconclusive: 5.62 µM [activator, single point]
CCOc1ccc2cc(C#N)c(SCC(=O)OC)nc2c1 | inconclusive: 5.62 µM [activator, single point]
COc1ccc(-c2cc(N)n(S(=O)(=O)c3c(F)c(F)c(F)c(F)c3F)n2)cc1OC | inactive
CCOC(=O)CCCNC(=O)CN1C(=O)NC(c2ccccc2)(c2ccccc2)C1=O | inactive
Cn1cc(Cl)c(C(=O)Nc2nc3ccc(Cl)cc3s2)n1 | active: 2.82 µM
CCOc1ccc(NC(=O)CCC(=O)Oc2ccc(C)cc2)cc1 | inactive
COCCN1CCN(C(=O)c2cc(COc3ccc(Cl)cc3OC)on2)CC1 | inconclusive: 3.16 µM [activator, single point]
Cc1ccc2nc(-c3cccc(Br)c3)cc(C(=O)NC3=NCCS3)c2c1 | inactive
O=C(NCc1ccccc1Cl)c1ccc2ccccc2n1 | inconclusive: 3.16 µM [activator, partial curve]
Cc1cc(C(=O)COC(=O)c2ccc(O)cc2O)c(C)n1-c1ccccc1 | inconclusive: 3.16 µM [activator, single point]
CN(C)C(=O)c1cc(C(=O)c2ccc(C(F)(F)F)cc2)c[nH]1 | inconclusive: 3.16 µM [activator, partial curve]
CC1=C(C(=O)OC(C)C)C(c2ccc(C)o2)C(C(=O)OC(C)C)=C(C)N1 | inactive
CCc1ccc(C(=O)Nc2cc(C)on2)o1 | inconclusive: 4.47 µM [activator, single point]
CN(C)c1ccc(CC(=O)c2nc3ccccc3s2)cc1 | inconclusive: 3.55 µM [activator, single point]
Cc1ccc2[nH]c3ccccc3c(=O)c2c1 | inconclusive: 5.62 µM [activator, single point]
CC(C)(C)C(=O)Nc1nnc(SCC(=O)NC2CCCCC2)s1 | inactive
O=C(Nc1ccc(N2CCCC2)c(Cl)c1)c1ccc([N+](=O)[O-])o1 | inconclusive: 3.55 µM [activator, single point]
Oc1c(C=Nc2ccc(Cl)cn2)sc2ccccc12 | inconclusive: 5.62 µM [activator, single point]
